The results in this text go back to the antibiotic and cytotoxicity screens of Wong et al. (2023).

Structures are written as SMILES. Some of the results follow.

Assay [1] relates to HSkMC (human skeletal muscle cells). Put plainly: cytotoxicity call (relative viability < 0.9). The conditions noted are these: 10 µM.
In assay [2] the test system is HepG2. In words: cytotoxicity call (relative viability < 0.9). Conditions: 10 µM.
Assay [3] relates to S. aureus RN4220. In words: growth inhibition call (relative growth <= 0.2). The conditions noted are these: 50 µM.

For the compound `CCS(=O)(=O)NC[C@@]12COC[C@H]1CN(c1cc(OC)ncn1)C2`, the cytotoxicity call in assay [1] and in assay [2] was “inactive” throughout. Further, in assay [3], the growth inhibition call is “inactive”.

Take `C[C@H](CO)N1C[C@H](C)[C@H](CN(C)Cc2ccc(-c3ccccc3)cc2)Oc2ccc(NC(=O)Nc3ccccc3)cc2C1=O`: the cytotoxicity call in assay [1] and in assay [2] was “inactive” each time. Moreover, in assay [3], the growth inhibition call was “inactive”.

Take `C[C@@H]1CN([C@H](C)CO)C(=O)Cc2cc(NC(=O)Cc3cn(C)c4ccccc34)ccc2O[C@@H]1CN(C)Cc1ccc(Cl)c(Cl)c1`: the cytotoxicity call in assay [1] was “inactive”. Moreover, the cytotoxicity call in assay [2] is “active”. In addition, the growth inhibition call in assay [3] was “inactive”.

For `Cc1ccc(S(=O)(=O)Nc2cccc3c2O[C@H](CN(C)C(=O)Nc2ccc(C(F)(F)F)cc2)[C@H](C)CN([C@H](C)CO)C3=O)cc1`, the cytotoxicity call in assay [1] and in assay [2] was “inactive” in each case. In addition, the growth inhibition call in assay [3] is “inactive”.

For `COc1ccc(NC(=O)Nc2ccc3c(c2)C(=O)N([C@H](C)CO)C[C@@H](C)[C@H](CN(C)S(=O)(=O)c2c(C)noc2C)OCCCC[C@H](C)O3)cc1`, the cytotoxicity call in assay [1] and in assay [2] was “inactive” throughout. Besides, the growth inhibition call in assay [3] was “inactive”.

In the case of `CC(C)NC(=O)Nc1cccc2c1O[C@H](CN(C)C(=O)NC1CCCCC1)[C@H](C)CN([C@@H](C)CO)C2=O`, the cytotoxicity call in assay [1] and in assay [2] was “inactive” in each case. For the same compound, in assay [3], the growth inhibition call is “inactive”.

In the case of `C[C@@H]1CN([C@@H](C)CO)C(=O)c2cccc(NC(=O)CCCCCC(=O)Nc3ccccc3N)c2O[C@H]1CN(C)Cc1ccccc1`, the cytotoxicity call in assay [1] and in assay [2] was “inactive” in each case. Besides, the growth inhibition call in assay [3] is “inactive”.

In the case of `COc1ccc(NC(=O)N(C)C[C@H]2OCCCC[C@@H](C)Oc3ccc(NC(=O)c4ccccc4)cc3C(=O)N([C@H](C)CO)C[C@H]2C)cc1`, the cytotoxicity call in assay [1] and in assay [2] was “inactive” throughout. In assay [3], the growth inhibition call was “inactive”.

Regarding `Cl.Cl.N=C(NCCCCCCNC(=N)NC(=N)Nc1ccc(Cl)cc1)NC(=N)Nc1ccc(Cl)cc1`, the cytotoxicity call in assay [1] and in assay [2] was “active” in each case. In addition, in assay [3], the growth inhibition call was “active”.

In the case of `C[C@@H]1CN([C@H](C)CO)C(=O)c2cc(NC(=O)CCN3CCOCC3)ccc2O[C@@H]1CN(C)Cc1ccc(C(=O)O)cc1`, the cytotoxicity call in assay [1] and in assay [2] was “inactive” each time. In assay [3], the growth inhibition call is “inactive”.

Turning to `COCC#Cc1cnc2c(c1)C(=O)N([C@H](C)CO)C[C@@H](C)[C@@H](CN(C)C(=O)CN1CCOCC1)O2`, the cytotoxicity call in assay [1] and in assay [2] was “inactive” in each case. For the same compound, the growth inhibition call in assay [3] was “inactive”.

As to `C[C@@H]1CCCCO[C@@H](CN(C)Cc2ccncc2)[C@H](C)CN([C@@H](C)CO)C(=O)c2cc(NS(C)(=O)=O)ccc2O1`, the cytotoxicity call in assay [1] and in assay [2] was “inactive” in each case. Moreover, the growth inhibition call in assay [3] was “inactive”.

Turning to `N[C@H](C(=O)O)c1cc(O)cc(O)c1`, the cytotoxicity call in assay [1] and in assay [2] was “inactive” each time. Besides, the growth inhibition call in assay [3] is “inactive”.

Turning to `C[C@H]1CN([C@@H](C)CO)C(=O)c2c(c3ccccc3n2C)-c2ccccc2CO[C@H]1CN(C)C(=O)Nc1ccccc1C(F)(F)F`, the cytotoxicity call in assay [1] and in assay [2] was “inactive” throughout. In addition, the growth inhibition call in assay [3] was “inactive”.

For the compound `C[C@@H]1CCCCO[C@H](CN(C)C(=O)Nc2ccc(F)cc2)[C@@H](C)CN([C@H](C)CO)C(=O)c2cc(NC(=O)c3ccccc3)ccc2O1`, the cytotoxicity call in assay [1] and in assay [2] was “inactive” in each case. For the same compound, the growth inhibition call in assay [3] is “inactive”.

`O=C(/C=C/c1ccc(O)c(O)c1)O[C@@H]1C[C@](OC(=O)/C=C/c2ccc(O)c(O)c2)(C(=O)O)C[C@@H](OC(=O)/C=C/c2ccc(O)c(O)c2)[C@H]1O`: the cytotoxicity call in assay [1] and in assay [2] was “inactive” throughout. Moreover, the growth inhibition call in assay [3] is “inactive”.
